Where “and” joins values, the source holds several entries; their conditions need not be identical. Equal entries are not always repeated. The inconclusive results got no clear call from the source; some entries with a clear call stand among them for comparison. Potencies beside an inconclusive call are fits to weak or partial responses and may not hold up. Calls of active or inactive are those of the source. Calls follow the shape of the dose curve; as a rule, active = well fitted activation curve with a large enough effect in the repeat runs; inconclusive = weak or mixed curves, or effect the other way; inactive = no such curve, though single readings can be large or run the other way.
These compounds were tested against Estrogen receptor (Homo sapiens) (UniProt P03372) (assay: qHTS assay to identify small molecule agonists of the estrogen receptor alpha (ER-alpha) signaling pathway using the BG1 cell line (AID 743079; also: nearly all actives have a fitted effect of over 20% in size)). Details: BG1Luc4E2 cells, ERE-luciferase agonist, 22 h; activation: at 70.3 µM (top of the series) unless noted.
Chain of UniProt P03372 (P03372 whole entry, looked up): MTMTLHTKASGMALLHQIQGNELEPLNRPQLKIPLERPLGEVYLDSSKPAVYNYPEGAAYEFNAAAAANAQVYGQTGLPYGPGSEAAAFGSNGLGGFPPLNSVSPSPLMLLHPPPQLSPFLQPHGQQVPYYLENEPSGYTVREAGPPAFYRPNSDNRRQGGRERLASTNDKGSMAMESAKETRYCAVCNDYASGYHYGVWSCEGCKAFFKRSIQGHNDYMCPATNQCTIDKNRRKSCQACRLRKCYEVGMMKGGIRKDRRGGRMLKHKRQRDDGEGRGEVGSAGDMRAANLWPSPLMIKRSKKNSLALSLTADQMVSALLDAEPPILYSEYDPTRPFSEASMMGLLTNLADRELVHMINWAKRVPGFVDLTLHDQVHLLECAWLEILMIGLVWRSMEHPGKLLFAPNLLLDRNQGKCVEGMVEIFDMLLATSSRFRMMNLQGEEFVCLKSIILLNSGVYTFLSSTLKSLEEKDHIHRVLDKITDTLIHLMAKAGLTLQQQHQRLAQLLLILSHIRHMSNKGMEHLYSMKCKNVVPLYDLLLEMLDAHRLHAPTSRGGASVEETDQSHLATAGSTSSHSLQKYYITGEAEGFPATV
For `CCO[C@H](Cc1ccc(OCCc2ccc(OS(C)(=O)=O)cc2)cc1)C(=O)O`, the Potency was “inactive”.
With `O=C(OCCCCCOC(=O)c1ccccc1)c1ccccc1` the activation was inconclusive: 7.38% [phenotype inactive].
For `C1CCC2OC2C1` (stereo not given), the Potency was inconclusive: 51.3 µM [activator, partial curve].
With `Nc1ccc(C(=O)OCCCOC(=O)c2ccc(N)cc2)cc1` the Potency was inconclusive: 68.6 µM [inhibitor, partial curve, poor fit].
With `CC1=CCC(O)(C(C)C)CC1` (stereo not given) the Potency was inconclusive: 61.1 µM [activator, single point].
In the case of `CCOc1cc(OCC)c(C(C)=O)cc1OCC`, the activation is reported as inconclusive: -6.75% [phenotype inactive].
For `COc1ccccc1OCC(O)COC(N)=O` (stereo not given), the Potency was “inactive”.
`CCc1ccc(CCOc2ccc(CC3SC(=O)NC3=O)cc2)nc1` (stereo not given) was tested, and the Potency was inconclusive: 9.44 µM [activator, partial curve, poor fit] and inconclusive: 61.1 µM [inhibitor, partial curve, poor fit].
With `CC(=O)CC(=O)c1ccccc1` the Potency was active: 34.6 µM.
For `CN1CCN(c2c(F)cc3c(=O)c(C(=O)O)cn(CCF)c3c2F)CC1`, the Potency was inconclusive: 15 µM [activator, single point].
In the case of `CC(C)COC(=O)c1ccccc1`, the Potency is reported as inconclusive: 61.1 µM [activator].
With `CC(C)OC(C)C` the Potency was “inactive”.
With `c1cnc2cc3c(cc2n1)C1CNCC3C1` the Potency was “inactive”.
For `Oc1ccc(/C=C/c2cc(O)cc(O)c2)cc1`, the Potency was active: 7.17 µM and active: 15.5 µM and active: 9.69 µM.
With `Cc1ccccc1C(OCCN(C)C)c1ccccc1` (stereo not given) the activation was inconclusive: 14% [phenotype inactive].
For `NC(=O)Cn1c(=O)cc(CCN2CCN(c3nccc4sccc34)CC2)c2ccc(F)cc21`, the Potency was inconclusive: 61.1 µM [inhibitor].
For `O=C1NCCN1`, the Potency was “inactive”.
With `O=C1CCCc2ccccc21` the Potency was “inactive”.
`OC(CCCN1CCCCC1)(c1ccccc1)c1ccccc1` was tested, and the Potency was “inactive”.
In the case of `O=P(OC(CCl)CCl)(OC(CCl)CCl)OC(CCl)CCl`, the Potency is reported as “inactive and inconclusive: 68.6 µM [inhibitor, single point]”.
In the case of `Cc1ccc(/C(=C\CN2CCCC2)c2ccccn2)cc1`, the Potency is reported as “inactive and inconclusive: 51.1 µM [inhibitor, partial curve, poor fit]”.
`C=CCOc1ccccc1OCC(O)CNC(C)C` (stereo not given) was tested, and the Potency was “inactive”.
`CCN1CCCC1=O` was tested, and the activation was inconclusive: 1.78% [phenotype inactive].
With `COS(C)(=O)=O` the Potency was “inactive”.
In the case of `CC(C)C/C=C(\C=O)c1ccccc1`, the Potency is reported as active: 61.1 µM.
`CC(C)c1nnc2ccc(-c3ocnc3-c3cc(F)ccc3F)cn12` was tested, and the Potency was inconclusive: 34.4 µM [inhibitor, partial curve].
For `Nc1ccn([C@@H]2O[C@H](CO)[C@@H](O)[C@@H]2O)c(=O)n1`, the Potency was active: 24.3 µM.
For `Nc1ccn([C@H]2CC[C@@H](CO)O2)c(=O)n1`, the Potency was “inactive”.
For `C#Cc1cccc(Nc2ncnc3cc(OCCOC)c(OCCOC)cc23)c1`, the Potency was “inactive”.
For `CCCCCCC(=O)OCC`, the Potency was inconclusive: 43.3 µM [activator, partial curve].
In the case of `CC1=CC(=O)/C(=C(/C)O)C(=O)O1`, the Potency is reported as inconclusive: 30.6 µM [activator, partial curve, poor fit].
`COC(Cc1ccccc1)OC` was tested, and the activation was inconclusive: 4.33% [phenotype inactive].
`NC(N)=N/N=C/c1c(Cl)cccc1Cl` was tested, and the Potency was “inactive”.
`O=C(O)Cc1sc(-c2ccccc2)nc1-c1ccc(Cl)cc1` was tested, and the activation was inconclusive: 8.53% [phenotype inactive].
With `CO[C@@H]1[C@@H](O[C@@H]2O[C@H](C)[C@@H](O[C@H]3C[C@@](C)(O)[C@@H](O)[C@H](C)O3)[C@H](N(C)C)[C@H]2O)[C@@H](CC=O)C[C@@H](C)[C@@H](O[C@@H]2CC[C@H](N(C)C)[C@@H](C)O2)/C=C/C=C/C[C@@H](C)OC(=O)C[C@H]1OC(C)=O` the Potency was “inactive”.
`CCCCCCCCCCCBr` was tested, and the Potency was “inactive”.
With `CCCCOC(=O)c1ccccc1C(=O)OCC(CC)CCCC` (stereo not given) the Potency was “inactive”.
For `Cc1ncc([N+](=O)[O-])n1CCO`, the activation was inconclusive: -7.91% [phenotype inactive] [at 95 µM].
`c1cc(CN2CCCCC2)cc(OCCCNc2nc3ccccc3s2)c1` was tested, and the Potency was inconclusive: 33.5 µM [inhibitor, single point].
With `O=S(=O)(c1ccccc1)c1ccc(Cl)cc1` the Potency was inconclusive: 61.1 µM [inhibitor, single point].
% is scaled to controls: 0 for no effect and ±100 for the full control effect; potency is read from the fitted curve at half-maximal effect; tags tell the direction and shape of the fitted curve.
